Test results as given in the supplement of paper PMC11348887.
Where a name gives a salt, the structure may show the parent alone. The list shows a part of the results. No stated cut-off is given here; in the data, active = -2 or less and inactive = the rest. Many values rest on one well or one pass, so single values are uncertain.

system: hPSC-derived cortical neurons (WA09); experiment: nuclei number (viability) z-score; higher = more surviving cells; details: 5 µM; treatment: days 7-14 after plating, readout day 21
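Further: nuclei counted from DAPI counterstain by automated high-content image analysis, four fields per well at ×20 in 384-well plates, with sequential b-score then z-score normalization.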

| Compound | nuclei number (z-score) |
| --- | --- |
| CN1C2=CC(=O)/C(=N\NC(N)=O)C=C2CC1S(=O)(=O)O (centres undefined) [Carbazochrome sodium sulfonate (AC-17)] | inactive: -0.218 |
| Cc1cc(Nc2ccc(NC(=O)c3ccc(Nc4ccnc5ccccc45)cc3)cc2)nc(N)n1 | active: -3.41 |
| CCC(NC(C)C)C(O)c1ccc(O)c(O)c1 (centres undefined) [Isoetharine Mesylate] | inactive: -0.285 |
| O=C(Cc1ccc(-c2ccc(OCCN3CCOCC3)cc2)cn1)NCc1ccccc1 | active: -7.36 |
| CN1CC(=O)NC1=N [Creatinine] | inactive: 0.3 |
| Nc1ncn([C@H]2C[C@H](O)[C@@H](CO)O2)c(=O)n1 [Decitabine] | inactive: 0.145 |
| CC(=O)Nc1ccc(NC(=S)NC(=O)c2ccc(C(C)(C)C)cc2)cc1 [Tenovin-1] | inactive: -0.306 |
| CCOc1cc(C(=O)N2CCC(N3CCN(C)CC3)CC2)ccc1Nc1ncc2c(n1)N(C1CCCC1)c1ccccc1C(=O)N2C | active: -6.78 |
| O=C(NOCCO)c1ccc2cncn2c1Nc1ccc(I)cc1F | inactive: 0.512 |
| O=c1cc(-c2ccc(O)c(O)c2)oc2cc(O)cc(O)c12 [Luteolin] | inactive: -0.871 |
| CCN[C@H]1C[C@H](C)S(=O)(=O)c2sc(S(N)(=O)=O)cc21 [Dorzolamide HCl] | inactive: 0.734 |
| CC(C)/N=c1\cc2n(-c3ccc(Cl)cc3)c3ccccc3nc-2cc1Nc1ccc(Cl)cc1 [Clofazimine] | inactive: -0.197 |
| O=C1Cc2cc(CCN3CCN(c4nsc5ccccc45)CC3)c(Cl)cc2N1 [Ziprasidone HCl] | inactive: -0.0471 |
| CC(C)(Sc1cc(C(C)(C)C)c(O)c(C(C)(C)C)c1)Sc1cc(C(C)(C)C)c(O)c(C(C)(C)C)c1 [Probucol] | inactive: -0.0477 |
| Oc1ccc(Cl)c2cccnc12 [Cloxiquine] | active: -3.45 |
| Nc1c(Br)cc(Br)cc1CN[C@H]1CC[C@H](O)CC1 [Ambroxol HCl] | inactive: 1.11 |
| Cn1ccnc1S [Methimazole] | inactive: 0.0304 |
| C=CC(=O)Nc1cccc(Nc2nc(Nc3ccc(N4CCN(C(C)=O)CC4)cc3OC)ncc2C(F)(F)F)c1 | inactive: 3.2 |
| CS(=O)(=O)CCNCc1ccc(-c2ccc3ncnc(Nc4ccc(OCc5cccc(F)c5)c(Cl)c4)c3c2)o1 [Lapatinib] | active: -4.22 |
| CS(=O)(=O)CCNCc1ccc(-c2ccc3ncnc(Nc4ccc(OCc5cccc(F)c5)c(Cl)c4)c3c2)o1 | inactive: -1.32 |
| COc1ccc(CCNCc2ccc(OCc3ccc(Cl)nc3)c(OC)c2)cc1OC | inactive: 0.402 |
| CCOc1ccc(Cc2cc([C@@H]3O[C@H](SC)[C@@H](O)[C@H](O)[C@H]3O)ccc2Cl)cc1 [Sotagliflozin (LX4211)] | inactive: 0.581 |

| Compound | nuclei number (z-score) |
| --- | --- |
| CC(C)(C)C(=O)OCOP(=O)(COCCn1cnc2c(N)ncnc21)OCOC(=O)C(C)(C)C [Adefovir Dipivoxil] | active: -5.3 |
| O.O.O.O.O=C([O-])CC(O)(CC(=O)[O-])C(=O)[O-].[Li+].[Li+].[Li+] [Citric acid trilithium salt tetrahydrate] | inactive: 1.01 |
| N#CC(c1ccc(Cl)cc1)c1c(Cl)cc(-n2ncc(=O)[nH]c2=O)cc1Cl (centres undefined) [Diclazuril] | inactive: 0.316 |
| O=c1ccc2ccc(O)c(O)c2o1 [Daphnetin] | inactive: -1.09 |
| COc1cc(OC)c(C(=O)CCCN2CCCC2)c(OC)c1 [Buflomedil HCl] | inactive: 1.2 |
| O=C(O)CC[C@H]1CC[C@@](c2cc(F)ccc2F)(S(=O)(=O)c2ccc(Cl)cc2)CC1 | inactive: -0.771 |
| C/C=C1\NC(=O)[C@H]2CSSCC/C=C/[C@H](CC(=O)N[C@H](C(C)C)C(=O)N2)OC(=O)[C@H](C(C)C)NC1=O [Romidepsin (FK228_ Depsipeptide)] | active: -5.05 |
| CN1CCC(=C2c3ccccc3CC(=O)c3sccc32)CC1 [Ketotifen Fumarate] | inactive: -0.475 |
| COc1ccccc1N1CCN(CC(O)COc2cccc3ccccc23)CC1 (centres undefined) [Naftopidil] | inactive: 0.117 |
| COc1ccccc1N1CCN(CC(O)COc2cccc3ccccc23)CC1 (centres undefined) [Naftopidil DiHCl] | active: -2.03 |
| Nc1nc(N)c2nc(-c3cccc(O)c3)cnc2n1 | inactive: 0.705 |
| O=C1O[C@H](CO)[C@@H](O)[C@H](O)[C@H]1O [Gluconolactone] | inactive: 0.233 |
| CC1(C)CCC(CN2CCN(c3ccc(C(=O)NS(=O)(=O)c4ccc(NCC5CCOCC5)c([N+](=O)[O-])c4)c(Oc4cnc5[nH]ccc5c4)c3)CC2)=C(c2ccc(Cl)cc2)C1 | inactive: 0.861 |
| COc1cc(OCc2cccc(-c3ccccc3)c2C)cc(OC)c1CN1CCCC[C@H]1C(=O)O [PD-1/PD-L1 inhibitor 1] | inactive: 0.0315 |
| CCCCCCCCCCC[C@@H](C[C@@H]1OC(=O)[C@H]1CCCCCC)OC(=O)[C@H](CC(C)C)NC=O [Orlistat] | inactive: -0.216 |
| CS(=O)(=O)c1cccc(CNc2nc(Nc3ccc4c(c3)CCC(=O)N4)ncc2C(F)(F)F)c1 | inactive: 0.695 |
| CC(C)(S)[C@@H](N)C(=O)O [Penicillamine] | inactive: 0.893 |
| Cc1ccc(NC(=O)c2ccc(CN3CC[C@H](N(C)C)C3)c(C(F)(F)F)c2)cc1Nc1nccc(-c2cncnc2)n1 [Bafetinib (INNO-406)] | inactive: 0.518 |
| CC(C)(Oc1ccc(Cl)cc1)C(=O)O [Clofibric Acid] | inactive: -0.2 |
| CC(=O)[C@@]1(O)CC[C@H]2[C@@H]3CCC4=CC(=O)CCC4=C3[C@@H](c3ccc(N(C)C)cc3)C[C@@]21C [Ulipristal] | inactive: 1.8 |
| COc1cc(Nc2ncc(F)c(Nc3ccc4c(n3)NC(=O)C(C)(C)O4)n2)cc(OC)c1OC [R406 (free base)] | inactive: -0.272 |
| COc1cc(Nc2ncc(F)c(Nc3ccc4c(n3)NC(=O)C(C)(C)O4)n2)cc(OC)c1OC | inactive: 0.149 |
